According to the BET-seq Pho4 binding data (Le et al. 2018):
This is one part of the list. The energies were worked out here from pooled read counts, against the library average; single values are noisy.

Biological target: T1, Pho4 (S. cerevisiae) (UniProt P07270)
T1 sequence: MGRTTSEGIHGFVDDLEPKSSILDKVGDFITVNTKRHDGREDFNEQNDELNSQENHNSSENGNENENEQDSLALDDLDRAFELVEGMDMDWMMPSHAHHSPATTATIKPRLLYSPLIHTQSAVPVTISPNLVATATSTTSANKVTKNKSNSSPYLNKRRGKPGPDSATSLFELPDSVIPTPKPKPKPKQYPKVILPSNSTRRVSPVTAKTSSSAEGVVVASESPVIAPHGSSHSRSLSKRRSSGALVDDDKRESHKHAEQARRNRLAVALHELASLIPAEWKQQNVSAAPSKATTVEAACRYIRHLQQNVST
Assay: relative binding free energy (BET-seq); higher = weaker binding
Settings: reference: library average

Sequence	relative binding free energy [kJ/mol]
TTATGCACGTGGTAGT	-0.0418
GGGCTCACGTGGGAGG	0.753
TTATTCACGTGGATAT	0.669
GGATGCACGTGGCTTG	0.0418
TAGGTCACGTGTGTAT	0.335
AAGGGCACGTGAGGAA	0.502
GTAGGCACGTGTAAAG	-0.126
TAGCGCACGTGAAAGG	1.09
AGGGTCACGTGTAGTA	0.251
TTGATCACGTGGTGGG	0.502
CCGAGCACGTGGGGGT	-1.13
GTAGGCACGTGGTGTC	-0.544
ACTGACACGTGATGGG	0.669
TTAAACACGTGTTTAA	0.293
TTTAACACGTGCTGGG	-0.0837
GTGTTCACGTGCGATA	1.09
CTTTACACGTGTGCGT	0.418
CGTGGCACGTGGGGCA	-0.795
TGCGGCACGTGGGTGG	-0.377
TGATCCACGTGTTATT	0
GTAGTCACGTGGTTTC	0.251
ATAGTCACGTGGGGGC	-0.209
CTAATCACGTGGTGTT	0.46

Sequence	relative binding free energy [kJ/mol]
CTTTTCACGTGGGACG	0.753
GATTACACGTGTGTTG	0.46
AGCGTCACGTGGCGAT	0.544
ATGGACACGTGTTCGG	-0.126
TAAGGCACGTGGTGAT	-0.502
AAGGGCACGTGGATGA	-0.0837
GGTATCACGTGAATGA	1.84
TTATTCACGTGACTGG	1.34
CTTAACACGTGGTTGT	-0.167
TGAGGCACGTGCTGGT	-0.293
AGCGGCACGTGATGCG	0.126
GATGTCACGTGGTATA	0.418
GATTACACGTGGCGTT	0.586
ATTGGCACGTGTCCGT	-0.209
TTAGTCACGTGTCGTT	0.879
ATGTGCACGTGTTTTG	0.251
AGAGTCACGTGGTTAC	0.753
TGGCTCACGTGTCGTT	0.628
TTATACACGTGTTAAT	0.0418
TAGTACACGTGGAGAG	0.293
GGAAGCACGTGGGCGG	-0.879
TTTCGCACGTGCTGGT	-0.586
TAGGTCACGTGTGTAA	1.21

Sequence	relative binding free energy [kJ/mol]
GGGGGCACGTGAGGTG	0.962
TCGAGCACGTGTTTTG	-0.167
GGAAGCACGTGCGGTA	-0.628
GGTTGCACGTGATGGG	1.3
TTTGGCACGTGGTACA	-0.544
TAAGGCACGTGTGGAT	0.167
TCTTGCACGTGAATTT	1.38
AGAGGCACGTGGGCCG	-1.51
GTTTGCACGTGGGCTC	-0.167
TGCAGCACGTGTATGA	0.209
ATGTTCACGTGGAAGT	1.09
GATAACACGTGGGAGT	0.0418
GTGCTCACGTGGGAGA	0.669
AGGTGCACGTGGGCGA	-1.17
TATCTCACGTGTGAGT	0.92
GGTGACACGTGGTAGG	-0.544
GGGTGCACGTGGTAGA	-0.293
ATGTACACGTGGGGGC	-0.377
GGTTTCACGTGGCGTG	1.09
GACTGCACGTGAGAGG	1.42
TGGGCCACGTGTTTTA	0
TTAGTCACGTGGGTGG	0.0418
TAGGTCACGTGAGGGA	1.38

Sequence	relative binding free energy [kJ/mol]
TTGGTCACGTGCATGG	0.126
TTAGACACGTGATATA	0.795
CGACTCACGTGGGTGT	0.711
GATGACACGTGGTGGA	0.0837
GTTTACACGTGGTTGG	0.837
TTTTGCACGTGGGCGA	-0.753
GAAATCACGTGGGGGA	0.251
TGTGCCACGTGTTGTA	-0.209
AAAGTCACGTGTTTAG	0.0418
AGAGGCACGTGAAAGT	0.879
GAGGTCACGTGACGGG	1.09
GGGCGCACGTGGGGTT	-0.837
GTGATCACGTGCATGT	0.251
GCTTGCACGTGAAGGT	1.09
GTATACACGTGATTTA	0.335
ATTGTCACGTGAAAGA	1.34
TTTCGCACGTGGGGAG	-0.335
TCTGTCACGTGGGTAC	-0.0418
GTCTGCACGTGGTATT	-0.126
CTGGGCACGTGGAGGC	-0.628
GTGCCCACGTGTTTGG	-0.46
AGAGGCACGTGAGGTA	0.711
GGTGTCACGTGTTTTC	0.879

Sequence	relative binding free energy [kJ/mol]
GGTCTCACGTGTGTGC	1.17
TGATGCACGTGTATGA	-0.167
GTTGTCACGTGTGCGT	0.335
AGTTGCACGTGAAAGT	0.795
TAATTCACGTGAGGTT	1.67
TAAGGCACGTGCGATA	-0.167
GGGTTCACGTGAGGTG	2.3
ATGATCACGTGATATA	1.38
CGGGCCACGTGGTGCA	-0.293
AGAGGCACGTGTTGAG	-0.0837
CTTAGCACGTGGAAGG	0.293
ATGCCCACGTGGTGTT	-0.795
GTGTTCACGTGATGAA	1.38
GGTTGCACGTGTGGTT	1
TATGTCACGTGTACAG	0.711
GGGGTCACGTGCGTTC	0.628
ATAGCCACGTGGGGAG	-1.3
GGATGCACGTGGTGGT	0.209
ATGGTCACGTGGACAG	0.962
GTAGGCACGTGCGAAG	-0.377
TTTTGCACGTGATTTG	0.251
CGATTCACGTGGTTTT	1.59
GCGGGCACGTGGAGGC	-0.377
